Reference: PubChem BioAssay AID686970 (National Center for Advancing Translational Sciences (NCATS), 2013)
Where “and” joins values, the source holds several entries; their conditions need not be identical. Equal values may be shown once. Out of some 360,000 compounds screened, about 6,000 (1.7%) were called active. The inconclusive results got no clear call from the source; some entries with a clear call stand among them for comparison. Calls follow the shape of the dose curve; as a rule, active = well fitted cell-killing curve with a large enough effect; inconclusive = small, poorly fitted or top-dose-only effect, or effect the other way; inactive = flat fitted curve, though single readings scatter. Potencies beside an inconclusive call are fits to weak or partial responses and may not hold up.
Potency is read from the fitted curve at half-maximal effect; tags tell the direction and shape of the fitted curve.

Assay: qHTS for induction of synthetic lethality in tumor cells producing 2HG: qHTS for the HT-1080-NT fibrosarcoma cell line;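 also: NT is the 2HG producing partner of a matched IDH1 knockdown line; nearly all actives have a fitted effect of over 55% in size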;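 as to activity, negative = less viability: 0% = DMSO-treated cells and -100% = media-only wells without cells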
Details: HT-1080-NT fibrosarcoma viability, CellTiter-Glo ATP luminescence, 48 h; activity, negative = less viability: at 46.1 µM (top of the series) unless noted
Outline: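 A 48-hour cytotoxicity screen used HT-1080-NT cells plated 2 hours before compound delivery. ATP-based CellTiter-Glo luminescence measured viability, normalized to DMSO and no-cell controls.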
For `Nc1c(C(=O)Nc2ccccc2)nnn1-c1ccc2c(c1)OCCO2`, the Potency was “inactive”.
With `COCC(=O)N1CCC(Oc2ccc(C(=O)NC(C)c3nc(C)sc3C)cc2)CC1` (centres undefined) the Potency was “inactive”.
With `Cc1c(C(=O)N2CCC(C)CC2)oc2ccc3c(c12)C(O)CC1(CCCCC1)O3` (centres undefined) the Potency was inconclusive: 18.4 µM [cytotoxic, partial curve].
In the case of `N#CC(c1ccc(Cl)cc1)c1ccc2c(C(F)(F)F)cc(C(F)(F)F)nc2n1` (centres undefined), the Potency was active: 10.3 µM.
In the case of `CCOC(=O)c1c(NC(=O)Cn2cnc([N+](=O)[O-])n2)sc2c1CCC(C)C2` (centres undefined), the Potency was inconclusive: 29.1 µM [cytotoxic, partial curve, poor fit].
For `CCOc1ccc(-c2nc(N)ncc2Oc2ccc(OC)cc2)c(O)c1`, the Potency was active: 23.1 µM.
With `COc1ccccc1N(CC(=O)N/N=C/c1c(O)ccc2ccccc12)S(C)(=O)=O` the Potency was inconclusive: 4.11 µM [cytotoxic, partial curve].
For `O=C(NCc1ccco1)c1cc2cc3ccc(Cl)cc3nc2o1`, the Potency was inconclusive: 29.1 µM [cytotoxic, single point].
With `CC(C)CNS(=O)(=O)c1ccc(OCC(=O)Nc2ccc3c(c2)OCO3)c(Cl)c1` the activity, negative = less viability was inconclusive: -30.1% [cytotoxic].
With `Fc1ccc2[nH]c3c(N4CCN(c5ccccc5)CC4)ncnc3c2c1` the Potency was inconclusive: 20.6 µM [cytotoxic, single point].
In the case of `Fc1ccccc1-c1ccc(-c2nc3ccc(Cl)cn3c2Nc2ccc(Cl)cc2)o1`, the Potency was inconclusive: 35.5 µM [cytotoxic, single point].
With `CC(Sc1nc(-c2ccccc2)cc(C(F)(F)F)n1)C(=O)O` (centres undefined) the Potency was “inactive”.
With `COC(=O)N1C2CCCCC2=NN(c2ccccc2)N1C(=O)OC` (centres undefined) the Potency was inconclusive: 29.1 µM [cytotoxic, single point].
For `Cc1ccc(O)c(N=Cc2cc(Cc3ccccc3)cc([N+](=O)[O-])c2O)c1`, the Potency was inconclusive: 18.4 µM [cytotoxic, single point].
With `c1ccc(CNc2c(-c3cccc(SC4CCCCC4)c3)nc3ccccn23)cc1` the Potency was inconclusive: 20.9 µM [cytotoxic, partial curve, poor fit] and inconclusive: 29.1 µM [cytotoxic, single point].
In the case of `Cc1ccc(/C=N\NC(=O)Cc2noc3ccccc23)cc1`, the Potency was inconclusive: 3.66 µM [cytotoxic, single point].
In the case of `CC(=O)N1CCC(C(=O)Nc2nc(-c3ccccc3)ns2)CC1`, the Potency was inconclusive: 0.794 µM [cytotoxic, full curve, poor fit].
For `Clc1ccc2c(c1)-c1ccccc1C1=NCCN12`, the Potency was inconclusive: 18.4 µM [cytotoxic, single point].
In the case of `Cc1ccc(C(Sc2ccccc2)C(Cn2cncn2)C(=O)c2ccccc2)cc1` (centres undefined), the Potency was inconclusive: 16.4 µM [cytotoxic, single point].
In the case of `COc1ccc(OC)c(-c2nc3c(C)n[nH]c(=O)c3[nH]2)c1`, the Potency was inconclusive: 23.1 µM [cytotoxic, single point].
With `O=C(NC(NC(=S)Nc1ccccc1Cl)C(Cl)(Cl)Cl)c1cccc(Cl)c1` (centres undefined) the Potency was inconclusive: 20.6 µM [cytotoxic, single point].
For `O=[N+]([O-])c1ccc(OCCn2cnc3ccccc32)cc1`, the Potency was “inactive”.
With `O=C(NCCN1CCC(n2c(=O)[nH]c3ccccc32)CC1)C(c1ccccc1)c1ccccc1` the Potency was inconclusive: 25.9 µM [cytotoxic, single point].
For `O=C(Nc1nc2ccccc2[nH]1)C1CCC1`, the Potency was inconclusive: 16.4 µM [cytotoxic, partial curve].
For `O=C(/C=C/c1ccncc1)c1ccc2c(c1)OCCO2`, the Potency was inconclusive: 20.6 µM [cytotoxic, single point].
In the case of `COC(=O)c1ccc(N2C(=O)c3ccc(OC)c(OC)c3C2=O)cc1`, the Potency was inconclusive: 25.9 µM [rising, partial curve, poor fit].
In the case of `O=C(CNc1ccc2ccccc2c1)N/N=C/c1ccc([N+](=O)[O-])o1`, the Potency was inconclusive: 14.6 µM [cytotoxic, partial curve].
For `O=C(CCN1C(=O)/C(=C/c2ccccc2Cl)SC1=S)NNC(=O)c1ccccc1O`, the Potency was inconclusive: 7.31 µM [cytotoxic, partial curve].
For `CC(C)(C)c1ccc(CSc2nc(N)cc(=O)[nH]2)cc1`, the Potency was inconclusive: 18.4 µM [cytotoxic, partial curve].
With `CCOc1ccc(S(=O)(=O)Nc2cc(Cl)ccc2O)cc1` the Potency was inconclusive: 18.4 µM [cytotoxic, partial curve].
For `CCCCOC(=O)C[N+](C)(C)CCOC1CC2CCC1(C)C2(C)C` (centres undefined), the activity, negative = less viability was inconclusive: -34.6% [cytotoxic].
In the case of `COc1ccc(-n2nnnc2-c2cnc(N3CCCC3)nc2C(F)(F)F)cc1`, the Potency was “inactive”.
With `COCCCNC(=O)CN1C(=O)/C(=C/c2ccccc2)Sc2ccccc21` the Potency was inconclusive: 18.4 µM [rising, partial curve].
In the case of `CC(C)c1cccc(-c2csc(C(C)(O)c3ccncc3)n2)c1` (centres undefined), the Potency was inconclusive: 23.1 µM [cytotoxic, single point].
In the case of `CCCNC(=O)C1(C)CCN(C(=O)C(c2ccccc2)c2ccccc2)C1` (centres undefined), the Potency was “inactive”.
With `O=C(COC(=O)CSc1ccc(F)cc1)NCC1CCCCC1` the activity, negative = less viability was inconclusive: -26.6% [cytotoxic].
For `O=C(NCCOc1ccccc1F)c1cc([N+](=O)[O-])ccc1N1CCOCC1`, the Potency was active: 6.51 µM.
With `COc1cc2c(c(OCC(=O)NC(C)C)c1)C(=O)O[C@@H](C)CCCC(=O)CCCCC2` the Potency was “inactive”.
In the case of `O=C(CCS(=O)(=O)c1ccccc1Cl)NC1CCCCCC1`, the Potency was “inactive”.
For `O=C(CCl)N1N=C(c2cccs2)CC1c1ccco1` (centres undefined), the Potency was active: 5.17 µM.
With `Cc1cc(C)c(-c2cc(NC(=O)CSc3n[nH]c(N)n3)n(-c3ccccc3)n2)cc1C` the Potency was inconclusive: 20.6 µM [cytotoxic, single point].
With `COc1ccccc1CNC(=O)N1CCN(S(=O)(=O)c2ccccc2)CC1` the Potency was “inactive”.
For `COc1cccc(/C=C2\NC(=O)NC2=O)c1O`, the Potency was “inactive”.
In the case of `COC(=O)[C@@]12C[C@@H](CC(=O)N3CCSCC3)C(=O)N(Cc3cccc4ccccc34)C1=CCC(C)(C)C2`, the Potency was inconclusive: 20.6 µM [cytotoxic, single point].
